We go through one molecule from patent publication US20060135431A1 (published 2006).

This assay has as its target T1, recombinant human AGP3 (human, UniProt Q9Y275 fragment, limits assumed).
T1 construct: also called TALL-1; human AGP3 protein
The assay is described as follows: KinExA solution equilibrium: 100 pM and 40 pM peptibody incubated with human AGP3, free peptibody captured on human AGP3-coated beads. For orientation: In KinExA the mixture passes briefly over coated beads that capture the unbound partner.

T1 sequence (Q9Y275 134-285 limits assumed): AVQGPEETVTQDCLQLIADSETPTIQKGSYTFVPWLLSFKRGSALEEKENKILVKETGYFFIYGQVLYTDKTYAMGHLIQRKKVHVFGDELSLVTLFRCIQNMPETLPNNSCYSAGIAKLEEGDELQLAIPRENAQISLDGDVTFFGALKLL

B1: TALL-1 12-3 tandem dimer peptibody (Fc fusion)
chain: MLPGCKWDLLIKQWVCDPLGSGSATGGSGSTASSGSGSATHMLPGCKWDLLIKQWVCDPLGGGGGV[human IgG1 Fc not spelt out]
notes: also called AGP3 peptibody; AGP3 Pb
Take B1: the Kd was approximately 4 pM.

What is called Kd is the constant that tells how readily two partners part at equilibrium.
